Reference: US20260176336A1 (MESTAG THERAPEUTICS, published 2026)

Legend:
[1] = target: T1, human LTBR endogenously expressed on cells (HepG2, A549, A375, HCC1187, RPMI-7951, primary human breast CAFs) (human, UniProt P36941 31-435); assay: cell-based or functional assay
[2] = target: T1, human LTBR endogenously expressed on …; assay: cell-based or functional assay; remark: listed apart in the source
[3] = target: T1, human LTBR endogenously expressed on …; assay: cell-based or functional assay; remark: listed apart in the source
[4] = target: T1, human LTBR endogenously expressed on …; assay: cell-based or functional assay; remark: listed apart in the source
[5] = target: T1, human LTBR endogenously expressed on …; assay: cell-based or functional assay; remark: listed apart in the source
[6] = target: T2, Biotinylated hLTBR-His-Avitag (Acro, cat no LTR-H82E9-25 µg) (human, UniProt P36941 31-227, biotinylated (Avitag)); assay: BLI (Octet), biotinylated LTBR on SA sensor, antibody (LTBR-bivalent) as analyte
T2 construct: bought protein loaded on SA Streptavidin biosensors
Method: Briefly, Biotinylated hLTBR-His-Avitag (Acro, cat no LTR-H82E9-25 μg) was loaded on SA Streptavidin biosensors (Fortebio) in kinetics buffer (ForteBio) followed by a 2-fold dilution series starting at 50 nM of FAP/LTBR bispecific antibodies. Binding kinetics were studied in a 1× Kinetics buffer where the association was allowed for 100 seconds, followed by dissociation for 300 seconds. Data generated were referenced by subtracting a parallel buffer blank, the baseline was aligned with the y-axis, inter-step correlation by alignment against dissociation was performed, and the data were smoothed by a Savitzky-Golay filter in the data analysis software. The processed data were fitted using a 1:1 Langmuir binding model with R\hat{ }2 as a measurement of fitting accuracy. The KD and R\hat{ }2 values can be found in.

[7] = target: T3, cyno FAP (Acro, cat no FAP-C82Q5) (cynomolgus (Macaca fascicularis), UniProt Q12884 26-760 (human entry)); assay: BLI (Octet), antibody captured by anti-Fc, FAP as analyte; * value outside instrument specifications
T3 construct: 'FAP is naturally a dimeric antigen'
Method: (§1) Binding to recombinant FAP proteins was investigated by Bio-Layer Interferometry (BLI) using the Octet instrument. Using standard amine coupling chemistry, an anti-Fc antibody was immobilised on the surface of ARG biosensors (Fortebio). The FAP/LTBR bispecific antibodies were loaded on the previously coated surface with anti-Fc capture antibody, followed by a 2-fold series dilution starting at 50 nM of either cyno FAP (Acro, cat no FAP-C82Q5) or human FAP (Acro, cat no FAP-H82Q6). Binding kinetics were studied in a 1× Kinetics buffer where the association was allowed for 200 seconds, followed by dissociation for 400 seconds. Sensor tips were regenerated using 10 mM Glycine pH 2.0. Data generated were referenced by subtracting a parallel buffer blank, the baseline was aligned with the y-axis, inter-step correlation by alignment against dissociation was performed, and the data were smoothed by a Savitzky-Golay filter in the data analysis software. The processed data were fitted using a 1:1 Langmuir binding model with R\hat{ }2 as a measurement of fitting accuracy. The Results are summarised in. Avidity was observed as FAP is naturally a dimeric antigen, and the limited detection by Octet with these molecules has been reached. Species cross-reactivity has been confirmed for all test samples.

[8] = target: T4, human FAP (Acro, cat no FAP-H82Q6) (human, UniProt Q12884 26-760); assay: as above
T4 construct: 'FAP is naturally a dimeric antigen'
Method: as §1

[9] = target: cynomologus recombinant LTBR (Octet, Example 4.8) (cynomolgus (Macaca fascicularis), UniProt P36941 31-227 (human entry), limits assumed); assay: BLI (Octet), cyno LTBR immobilised on ARG sensor, antibody at 25 nM
Method: A 2-fold series dilution starting at 50 nM of cynomologus recombinant LTBR was immobilised on the surface of ARG biosensors (Fortebio), followed by FAP/LTBR bispecific at 25 nM. Binding kinetics were studied in a 1× Kinetics buffer where the association was allowed for 180 seconds, followed by dissociation for 100 seconds. Sensor tips were regenerated using ethylene glycol. Data generated were referenced by subtracting a parallel buffer blank, the baseline was aligned with the y-axis, inter-step correlation by alignment against dissociation was performed, and the data were smoothed by a Savitzky-Golay filter in the data analysis software. The processed data were fitted using a 1:1 Langmuir binding model with R\hat{ }2 as a measurement of fitting accuracy. The KD values can be found in.

Row | Binder | ICAM1 upregulation in CAFs monoculture assay EC50 [1] | chemokine (CCL5) induction in RPMI-7951 EC50 [2] | HCC1187 monoculture assay CCL19 read-out EC50 [3] | HCC-1187:RPMI7951 (cis-activation) co-culture assay CCL5 read-out EC50 [3] | HCC-1187:RPMI7951 (trans-activation) co-culture assay, CCL19 Read-out EC50 [3] | HepG2 Reporter assay, HepG2:FAP-CHO-K1 Co-culture EC50 [4] | HepG2 Reporter assay, HepG2 Monoculture EC50 [4] | CCL19 upregulation, HCC1187:CAF Co-culture EC50 [5] | Kd [6] | CCL19 upregulation, HCC1187 Monoculture EC50 [5] | binding result [7] | binding result [8] | Kd [9]
1 | Clone 4.8 (bispecific antibody, human IgG1, kappa) heavy: QLQLQESGPGLVKPSETLSLTCTVSGGSISSSTYYWGWIRQPPGKGLEWIGSIFYSGNTYYNPSLKSRVTISVDTSKNHFSLKLSSVTAADTAVYYCAREIIEPRPGYFDYWGQGTLVTVSS[human IgG1 constant region with changes not listed]GGGGSGGGGSGGGGSDVQLVESGGGLVQPGGSLRLSCAASGRFFGIYDMYWYRQAPGKQRELVAISTSGGHTNYADSVKGRFTISRDNAKNTVYLQMNSLRPEDTAVYYCNIQRVDAPGFYWGQGTLVTVSSA light: DIQMTQSPSSLSASVGDRVTITCRASQSISKYLNWYQQKPGKAPKLLIYAASSLQSGVPSRFSGSGSGTDFTLTISSLQPEDFATYYCQQSNSIPRTFGQGTKVEIKRTVAAPSVFIFPPSDEQLKSGTASVVCLLNNFYPREAKVQWKVDNALQSGNSQESVTEQDSKDSTYSLSSTLTLSKADYEKHKVYACEVTHQGLSSPVTKSFNRGEC | 1.2 pM | 2.9 pM | 1400 pM | 1.3 pM | 10 pM | 23 pM | 220 pM | 25 pM | – | – | – | – | –
2 | Clone 4.9 (bispecific antibody, human IgG1, kappa, FAP:LTBR 2:2 homodimer IgG of FAP mAb (clone 3.5) with C-terminal fused anti-LTBR VHHs (clone 1.6), human IgG1 LALA) heavy: QLQLQESGPGLVKPSETLSLTCTVSGGSISSSTYYWGWIRQPPGKGLEWIGSIFYSGNTYYNPSLKSRVTISVDTSKNHFSLKLSSVTAADTAVYYCAREIIEPRPGYFDYWGQGTLVTVSS[human IgG1 constant region with changes not listed]GGGGSGGGGSGGGGSDVQLVESGGGLVQPGGSLRLSCKASGTTFSDRAFGWYRQAPGKQRELVATISTAGLTWYDVSVKGRFTISRDNAKNTVYLQMNSLRPEDTAVYYCNTFRGNWGQGTLVTVSS light: DIQMTQSPSSLSASVGDRVTITCRASQSISKYLNWYQQKPGKAPKLLIYAASSLQSGVPSRFSGSGSGTDFTLTISSLQPEDFATYYCQQSNSIPRTFGQGTKVEIKRTVAAPSVFIFPPSDEQLKSGTASVVCLLNNFYPREAKVQWKVDNALQSGNSQESVTEQDSKDSTYSLSSTLTLSKADYEKHKVYACEVTHQGLSSPVTKSFNRGEC | 2.2 pM | 1.8 pM | 47 pM | 1.3 pM | 11 pM | 6 pM | 70 pM | 19 pM | 170 pM | 380 pM | binds | binds | 8650 pM
